Screen size: about 39,000 compounds; about 220 (0.56%) showed activity. This is one part of the list.
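Also: static incubation at 37 °C against the wild-type strain, values averaged over two biological replicates.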

The test has as its system Escherichia coli K-12 BW25113. As to the kind of experiment: relative growth (OD600 normalised to plate interquartile mean) (fraction); higher = less growth inhibition, active = 0.2 or less. The settings on record: 50 µM; LB; incubation time: overnight (16-24 h).
For `NC(CC(=O)N1CCn2c(nnc2C(F)(F)F)C1)Cc1cc(F)c(F)cc1F.O.O=P(O)(O)O` (stereo not given), the relative growth is inactive: 0.87.

As to `COCC#Cc1ccc([C@H]2[C@H]3CN(C(=O)c4ccncc4)CC(=O)N3[C@H]2CO)cc1`, the relative growth was inactive: 1.01.

In the case of `CC(=O)NCc1c(I)c(NC(C)=O)c(I)c(C(=O)O)c1I`, the relative growth is inactive: 0.978.

For `Nc1ncnc2c1ncn2C1OC(CO)C(O)C1O` (stereo not given), the relative growth was inactive: 1.16.

Take `C[C@@H]1CN([C@@H](C)CO)C(=O)c2cccc(NC(=O)CCCCCC(=O)Nc3ccccc3N)c2O[C@@H]1CN(C)S(=O)(=O)c1cn(C)cn1`: the relative growth is inactive: 0.984.

Turning to `C[C@@H]1CCCCO[C@H](CN(C)C(=O)Nc2ccc(F)cc2)[C@@H](C)CN([C@@H](C)CO)C(=O)c2cc(NS(=O)(=O)c3ccccc3)ccc2O1`, the relative growth is inactive: 1.03.

In the case of `O=C(CCCCCCC(=O)Nc1ccc([C@H]2O[C@@H](CSc3nc(-c4ccccc4)c(-c4ccccc4)o3)C[C@@H](c3ccc(CO)cc3)O2)cc1)NO`, the relative growth is inactive: 0.941.

With `COc1ccccc1-c1cnc2c(c1)C(=O)N([C@H](C)CO)C[C@H](C)[C@@H](CN(C)C(=O)c1ccncc1)O2`, the relative growth was inactive: 0.985.

Take `Nc1cncnc1`: the relative growth is inactive: 0.993.

With `C[C@H]1CN([C@@H](C)CO)C(=O)c2cc(NC(=O)Nc3ccc(C(F)(F)F)cc3)ccc2O[C@@H]1CN(C)S(=O)(=O)c1ccc(Cl)cc1`, the relative growth was inactive: 1.01.

Take `CC1(C)C(=O)C2CC3(O)C4=CC(=O)OC(c5ccoc5)C4(C)CCC3C(C)(C2=O)C1CC(=O)O` (stereo not given): the relative growth is inactive: 0.979.

As to `C[C@H](CO)N1C[C@H](C)[C@H](CN(C)C(=O)Nc2ccccc2)OCCCC[C@H](C)Oc2ccc(NC(=O)Nc3ccccc3)cc2C1=O`, the relative growth was inactive: 1.03.

Consider `Cc1noc(C)c1NC(=O)Nc1ccc2c(c1)CC(=O)N([C@@H](C)CO)C[C@H](C)[C@@H](CN(C)Cc1ccc(-c3ccccc3)cc1)O2`, for which the relative growth was inactive: 0.957.

Turning to `C/C=C/c1ccc2c(c1)O[C@@H](CN(C)S(=O)(=O)c1ccc(F)cc1)[C@@H](C)CN([C@H](C)CO)S2(=O)=O`, the relative growth was inactive: 0.975.

Take `COc1ccc(NC(=O)N(C)C[C@H]2OCCCC[C@H](C)Oc3ccc(NC(=O)Nc4ccc(C(F)(F)F)cc4)cc3C(=O)N([C@@H](C)CO)C[C@@H]2C)cc1`: the relative growth was inactive: 1.01.

For the compound `C[C@@H]1CN([C@H](C)CO)C(=O)Cc2cc(NC(=O)Cc3cn(C)c4ccccc34)ccc2O[C@@H]1CN(C)CC1CCCCC1`, the relative growth is inactive: 1.

In the case of `C[C@H](CO)N1C[C@H](C)[C@H](CN(C)S(=O)(=O)c2ccccc2)Oc2ncc(C#CCN(C)C)cc2C1=O`, the relative growth was inactive: 1.01.

As to `C[C@@H]1CN([C@H](C)CO)C(=O)Cc2cc(NC(=O)Nc3cccc4ccccc34)ccc2O[C@H]1CN(C)Cc1ccc2c(c1)OCO2`, the relative growth was inactive: 0.967.

Regarding `OC[C@@H](O)[C@@H](O)CO`, the relative growth is inactive: 1.02.

On to `C[C@H]1CN([C@@H](C)CO)C(=O)c2cc(NS(C)(=O)=O)ccc2O[C@H]1CN(C)S(=O)(=O)c1cccs1`, for which the relative growth is inactive: 1.01.

As for `C[C@H]1C/C(=C\N(C)C)C(=O)C1=O`, the relative growth is inactive: 1.03.

`C[C@H](CO)N1C[C@H](C)[C@@H](CN(C)Cc2ccc(C(=O)Nc3ccccc3N)cc2)Oc2ccc(NC(=O)CCN3CCOCC3)cc2CC1=O`: the relative growth is inactive: 1.02.

For `O=C(Nc1cc(C(F)(F)F)ccc1-n1cnc2ccccc21)c1ccc(S(=O)(=O)N2CCCC2)cc1`, the relative growth was inactive: 0.937.

Regarding `O=C(NC1CCN(CCCCC2(C(=O)NCC(F)(F)F)c3ccccc3-c3ccccc32)CC1)c1ccccc1-c1ccc(C(F)(F)F)cc1`, the relative growth was inactive: 1.05.

As to `N=C(N)NCCC[C@H](N)C(=O)NCC(=O)N[C@@H](CC(=O)O)C(=O)N[C@@H](CO)C(=O)O`, the relative growth was inactive: 0.981.

As to `C[C@@H]1CN([C@H](C)CO)C(=O)c2cc(NC(=O)Nc3ccc(C(F)(F)F)cc3)ccc2O[C@H]1CN(C)C(=O)Nc1ccccc1`, the relative growth is inactive: 1.03.

With `CN1C(=O)c2cc(NC(=O)c3ccc(F)c(F)c3)ccc2OC[C@H]2O[C@@H](CC(=O)N3CCOCC3)CC[C@@H]21`, the relative growth was inactive: 0.988.

As to `NCC[C@H]1CC[C@H](NC(=O)C2CCCCC2)[C@H](CO)O1`, the relative growth is inactive: 1.01.

Take `CC1(CO)COC1`: the relative growth was inactive: 0.994.

`Cc1noc(C)c1S(=O)(=O)Nc1cccc2c1O[C@H](CN(C)Cc1ccc(C(=O)O)cc1)[C@H](C)CN([C@H](C)CO)C2=O`: the relative growth was inactive: 1.

For `C[C@H]1CN([C@@H](C)CO)C(=O)CCCn2cc(nn2)CO[C@@H]1CN(C)S(=O)(=O)c1ccc2ccccc2c1`, the relative growth is inactive: 0.998.

With `CO/N=C(\C(=O)N[C@@H]1C(=O)N2C(C(=O)O)=C(CSc3nnnn3C)CS[C@H]12)c1csc(N)n1`, the relative growth is active: 0.0456.

Take `COCC#Cc1cnc2c(c1)C(=O)N([C@@H](C)CO)C[C@H](C)[C@H](CN(C)C(=O)CCN1CCCCC1)O2`: the relative growth was inactive: 1.01.

As to `C[C@H]1CN([C@@H](C)CO)C(=O)c2cc(NS(=O)(=O)c3ccc(F)cc3)ccc2O[C@H]1CN(C)S(=O)(=O)c1ccccc1`, the relative growth is inactive: 0.995.

Consider `C[C@@H]1CCCCO[C@H](CN(C)S(=O)(=O)c2ccc(Cl)cc2)[C@H](C)CN([C@H](C)CO)C(=O)c2cc(NC(=O)CCC(F)(F)F)ccc2O1`, for which the relative growth was inactive: 0.973.

For `COc1cccc(S(=O)(=O)N[C@H]2CC[C@@H](CCn3cc(-c4ccccc4OC)nn3)O[C@H]2CO)c1`, the relative growth was inactive: 1.

Consider `CO[C@H]1O[C@H](CO)[C@@H](OC(=O)Nc2ccc(Oc3ccccc3)cc2)[C@H](OC(=O)Nc2ccccc2)[C@H]1OC(=O)Nc1ccccc1`, for which the relative growth was inactive: 1.03.

As to `C[C@@H]1CCCCO[C@H](CN(C)Cc2ccc(Cl)c(Cl)c2)[C@@H](C)CN([C@@H](C)CO)C(=O)c2cc(N(C)C)ccc2O1`, the relative growth is inactive: 0.984.

As to `Cc1noc(C)c1NC(=O)Nc1ccc2c(c1)C(=O)N([C@@H](C)CO)C[C@@H](C)[C@@H](CN(C)C(=O)NC1CCCCC1)OCCCC[C@@H](C)O2`, the relative growth was inactive: 0.985.

On to `COc1ccc(S(=O)(=O)Nc2ccc3c(c2)C(=O)N([C@@H](C)CO)C[C@H](C)[C@H](CN(C)S(=O)(=O)c2ccccc2)O3)cc1`, for which the relative growth is inactive: 1.04.

`C[C@H]1CN([C@@H](C)CO)C(=O)c2c(c3ccccc3n2C)-c2ccccc2CO[C@H]1CN(C)C(=O)CCC(F)(F)F`: the relative growth was inactive: 1.02.

Regarding `NS(=O)(=O)c1cc2c(cc1Cl)N=C(CSCc1ccccc1)NS2(=O)=O`, the relative growth is inactive: 1.03.

Regarding `COc1ccc(S(=O)(=O)Nc2ccc3c(c2)CC(=O)N([C@@H](C)CO)C[C@@H](C)[C@H](CN(C)S(=O)(=O)c2cccs2)O3)cc1`, the relative growth was inactive: 1.02.

In the case of `COc1ccc(NC(=O)N(C)C[C@@H]2OCCCC[C@@H](C)Oc3ccc(NC(=O)Cc4ccccc4)cc3C(=O)N([C@H](C)CO)C[C@H]2C)cc1`, the relative growth was inactive: 0.989.

As to `C[C@@H]1CCCCO[C@@H](CN(C)Cc2ccc3c(c2)OCO3)[C@H](C)CN([C@@H](C)CO)C(=O)c2cc(NC(=O)C3CCCCC3)ccc2O1`, the relative growth is inactive: 1.01.

As to `C[C@@H]1c2ncc(CN3CCN(C)CC3)n2CCN1S(C)(=O)=O`, the relative growth was inactive: 0.986.

Regarding `Cc1ccc(-c2ccc3c(c2)O[C@H](CN(C)C(=O)CN(C)C)[C@@H](C)CN([C@H](C)CO)S3(=O)=O)cc1`, the relative growth is inactive: 1.

With `C[C@H](CO)N1C[C@H](C)[C@@H](CN(C)S(=O)(=O)c2ccc(F)cc2)Oc2c(NC(=O)c3ccncc3)cccc2C1=O`, the relative growth was inactive: 1.01.

Turning to `C[C@H](CO)N1C[C@H](C)[C@H](CN(C)C(=O)Nc2ccc3c(c2)OCO3)OCCCC[C@H](C)Oc2ccc(NC(=O)NC3CCCCC3)cc2C1=O`, the relative growth was inactive: 0.999.

As to `CCc1nc2ccc(C(=O)NCc3ccccc3OC)cn2c1N(CC)Cc1cccc(Br)c1`, the relative growth was inactive: 1.01.

With `C[C@@H]1CCCCO[C@@H](CN(C)S(C)(=O)=O)[C@@H](C)CN([C@H](C)CO)C(=O)c2cc(NC(=O)Nc3cccc4ccccc34)ccc2O1`, the relative growth was inactive: 1.01.

For the compound `CC(C)NC(=O)Nc1ccc2c(c1)C(=O)N([C@@H](C)CO)C[C@@H](C)[C@H](CN(C)C(=O)Nc1ccccc1)OCCCC[C@@H](C)O2`, the relative growth is inactive: 1.02.

Take `C[C@@H]1CCCCO[C@@H](CN(C)S(=O)(=O)c2ccc(F)cc2)[C@@H](C)CN([C@H](C)CO)C(=O)c2cc(NC(=O)Nc3ccc(F)cc3)ccc2O1`: the relative growth is inactive: 1.

`Cc1noc(C)c1NC(=O)Nc1cccc2c1O[C@H](CN(C)Cc1ccc(-c3ccccc3)cc1)[C@@H](C)CN([C@H](C)CO)C2=O`: the relative growth was inactive: 1.

With `COc1ccc(NC(=O)N(C)C[C@H]2Oc3ccc(NC(=O)Nc4ccc(C(F)(F)F)cc4)cc3CC(=O)N([C@H](C)CO)C[C@H]2C)cc1`, the relative growth is inactive: 0.991.

Regarding `COc1ccc(NC(=O)Nc2ccc3c(c2)CC(=O)N([C@@H](C)CO)C[C@@H](C)[C@H](CN(C)Cc2ccc(Oc4ccccc4)cc2)O3)cc1`, the relative growth is inactive: 0.93.

Take `C[C@H]1CN([C@@H](C)CO)S(=O)(=O)c2ccc(C#Cc3ccc(F)cc3)cc2O[C@@H]1CN(C)S(=O)(=O)c1ccc(F)cc1`: the relative growth is inactive: 1.04.

`C[C@@H]1CCCCO[C@H](CN(C)C(=O)Nc2ccc3c(c2)OCO3)[C@@H](C)CN([C@@H](C)CO)C(=O)c2cc(NS(=O)(=O)c3ccccc3)ccc2O1`: the relative growth is inactive: 1.01.

Take `C[C@@H]1CN([C@@H](C)CO)C(=O)Cc2cc(NC(=O)CCCN(C)C)ccc2O[C@@H]1CN(C)S(=O)(=O)c1cccs1`: the relative growth is inactive: 0.982.

On to `C[C@H](CO)N1C[C@H](C)[C@H](CN(C)S(=O)(=O)c2ccccc2)Oc2c(NC(=O)Nc3cccc4ccccc34)cccc2C1=O`, for which the relative growth is inactive: 1.

For the origin of these results see the supplement of paper PMC9446081.
